167 variants from the RNAGym collection of RNA variant scans (doi:10.7554/elife.90254) can be followed below.

Sequences and labels used below:
B1: LINE1-mini (parent)
chain: GGCAGAGCUCAACACAGCGUGGCAAAGUGGCUGUGGCUAGACUGCC

The source gives no read counts; variants with many changes may rest on few reads.

The data set covers variants of B1. Kind of data set: self-cleavage, relative activity (ratio to wild type); higher = more cleavage; in vitro, sequencing; the parent is a self-cleaving ribozyme.
As for U20G A26U A39U A41G, the self-cleavage stood at 0.05. Under U20G G21A U28C G30U stands 0.25; under U20A G22U U38G C42G, 0.03. Under G21A G44U C45U C46A stands 0.03; under G21C G27C U38C C42A, 0.14. Under G21A U34G G44A stands 0.02; under G21C C23U A25C, 1.51. On to G21A G22C C46A, for which the self-cleavage was found to be 0.89. Under G21A U28A C37G C46U stands 0.07. Under G21A C31G G35A stands 0.01. Under U20C A26C U32G U38G C46A stands 0.02.

Consider U20A G29C C45U, for which the self-cleavage worked out at 1.13. As for U20C G21A U28G C31A, the self-cleavage was found to be 1.24. Consider G21C G27U C31U G33A, for which the self-cleavage was 0.12. For the variant G21C A39U U43A, the self-cleavage was 0.05.

Take U20C G27C C31G: the self-cleavage is 0.02. Turning to G21C G22C U43C, the self-cleavage amounted to 0.03. Under U20G G44U C46A stands 0.09; under G21C A24C U43C, 0.12; under U20C U34C C37G, 0.02. For the variant U20G G30C C37U G40C C42A, the self-cleavage was determined as 0.03. For the variant U20G A24C G33U, the self-cleavage amounted to 0.02. Under U20A G40C C42G stands 0.02; under G21A G27A U38C, 0.69; under G21A C23G G27A U28C G36A U38G U43A, 0.

G21A C31U C37U: the self-cleavage was 0.08. Under U20A U28A U43C stands 0.02.

On to U20G G36A C37U G40C, for which the self-cleavage turned out to be 0.13.

As to U20G U28G U43C, the self-cleavage was determined as 0.04. Under U20G A24U C31A G44U stands 0.01; under G21C A24U A26U, 0.99; under U20C G27A U32A G33A, 0.03. For U20G C23G A25U G40C C45U, the self-cleavage turned out to be 0.12.

With U20A G36A C45A, the self-cleavage stood at 0.04.

Regarding G21A G30A G36C, the self-cleavage is 0.09. Under U20A G30C C42U stands 0.14; under U20A G30C U38C, 0.16. Under G21C G30C U32A C42A stands 0.02.

Turning to U20G U32G G35C, the self-cleavage is 0.01. Take U20C A25U A39U C42G G44U: the self-cleavage worked out at 0.02. Under G21A G22U G27C U43G C46A stands 0.02; under G21C G29A C37G, 0.02. Under G21C G29A C37A stands 0.02. Under U20G G21U U38G G40C stands 0.03; under G21C G30C G40A C42U, 0.04; under G21A G33C C37U, 0.04.

Regarding U20C U28A C46A, the self-cleavage was found to be 0.68. Under U20C G35C U43A G44U stands 0.02; under U20A G35C A39G C46A, 0.1; under U20C C31A G33A G35C, 0.05. With U20A U34C U38G G40C U43C, the self-cleavage turned out to be 0.02. In the case of U20C G22C A39C, the self-cleavage was determined as 0.01. Under U20C G22C A39U stands 0.33; under U20G G27C G35U, 0.04. Under G21A G33U U34G stands 0.04.

On to U20C G21U G27A C45G, for which the self-cleavage is 0.09. Under U20C G30U U32C C42G C46U stands 0.02; under U20A G33A U38C, 0.05; under U20C C31G G35U, 0.05. As for U20G G33A A41G, the self-cleavage stood at 0.02. Under G21A G30C G33C stands 0.1. Under G21C G27A A39G stands 0.06. Turning to U20G C23U G27C U38A, the self-cleavage came to 0.17. Take G21C G30U C37G U38G G44A: the self-cleavage was determined as 0.01. Under G21A G30A C45A stands 0.51; under G21A U32G G36C, 0.05.

On to U20A G29U A39G A41U, for which the self-cleavage stood at 0.01. Under U20C A24C A25U U28C stands 0.64; under G21C G22A G30U C31A A41C, 0.03.

G21A G27C G40C: the self-cleavage amounted to 0.26. Consider U20C G33U C37A, for which the self-cleavage was found to be 0.06. As to U20A G22C G30C C37G G40U C42A C45U, the self-cleavage amounted to 0.02. On to G21A C31U C42G, for which the self-cleavage came out at 0.02.

Regarding U20A G27A U34A, the self-cleavage came to 0.06.

As to G21C C23A C45G, the self-cleavage amounted to 0.09.

On to G21A A26G G36C A39C, for which the self-cleavage was 0.01. With U20C U28C G30A A41U, the self-cleavage stood at 0.41.

With U20G G22A C37U, the self-cleavage amounted to 0.05.

Turning to U20C U28A G36C, the self-cleavage amounted to 0.06. In the case of U20C G29C G36A C37U, the self-cleavage was 0. With G21A A24U C31A, the self-cleavage stood at 0.05. Under G21C C31A G36U stands 0.04; under U20G C23U A39C, 0.06; under G21A C23U A24C G27U, 0.99. In the case of U20G A25U G29C, the self-cleavage worked out at 0.15. Consider G21A G29A C46A, for which the self-cleavage amounted to 1.59.

For the variant G21A G22A A26U, the self-cleavage was 1.39.

As to U20A U32A G35U, the self-cleavage was found to be 0.01. Under G21A A26U C31U stands 0.42; under U20G U32C G35A U43C, 0.02.

On to G21A U28A C37U G44A, for which the self-cleavage is 0.03.

With G21A G36U G40U, the self-cleavage came to 0.21. Under G21C A26G G44C stands 0.2; under G21A U32A G33A, 0.03. Turning to G21C U32C C37G, the self-cleavage is 0.03. Under G21A G27U G30A stands 0.55; under U20C G22A C31G G35U, 0.01. Under G21C A24G G27C G40C G44C stands 0.07; under G21C U32C G36A, 0.05. Regarding U20C G35U A39C, the self-cleavage was determined as 0.03. G21C C23G A26G: the self-cleavage came out at 0.29. Consider U20A G30C C45G, for which the self-cleavage is 0.02. Under U20G G35U G44A stands 0.03; under U20A G33U G44C, 0.05. In the case of U20C A24G G35U, the self-cleavage is 0.05.

In the case of G21A U32G U34C, the self-cleavage stood at 0.98.

Regarding U20G C45A C46U, the self-cleavage is 0.04. In the case of U20A U32G C42U, the self-cleavage worked out at 0.02. Regarding U20A U34C A39U C45G, the self-cleavage was 0.01. Under U20C G27A G35A stands 0.13; under U20G A26C G36U, 0. Under G21A U34A G44U stands 0.03; under U20C G27A U32C C46U, 0.03; under U20G G30U C46U, 0.54. Under U20A G29U G35C stands 0.06; under U20C A26C U32C, 0.11.

Turning to U20C U34C A39U, the self-cleavage came to 0.16.

With G21C G22A G27C, the self-cleavage was found to be 0.42. As for G21C G22A U34G, the self-cleavage is 0.08.

On to U20A G36C C37U G44C C46U, for which the self-cleavage came out at 0.05. Under G21A C23G G30C stands 0.35; under U20G U32A G33U C42U, 0.04; under U20C U28G U34G, 0.07.

Regarding U20G C31A G36C, the self-cleavage is 0.03.

Take U20C G21C A25G G33U: the self-cleavage came to 0.26. Under G21A U38C A39C stands 0.17; under G21A C23U A24C, 1.22.

For U20A U28G U38G, the self-cleavage was determined as 0.02.

Consider G21A G35U U38C C46A, for which the self-cleavage was determined as 0.05. Regarding U20C C23U A26U C31U, the self-cleavage came out at 0.14. For G21C G30A G40A, the self-cleavage worked out at 0.17. As for U20C G27C U43A, the self-cleavage turned out to be 0.13. Consider U20C C23A G33A C46A, for which the self-cleavage turned out to be 0.15. G21A C23G C31U: the self-cleavage was 0.15. Take G21C A24C G29A C46U: the self-cleavage came out at 0.16. Under U20C G22C G35U stands 0.08; under U20C C31G G33A, 0.02. Under G21C C23A U34G stands 0.17; under G21A G29C C37G, 0.01; under U20C G33U G40A C45A, 0.03. Under G21A A25C C37U stands 0.04; under U20C U32A C46A, 0.05. As to G21A C23G G29C C31A G36C, the self-cleavage was 0.05. Under U20C G21C C23G A25C stands 0.23; under U20C C23U A24G, 0.13; under G21A G36A G40A, 1.08. Under G21A G30A G33U G36U C42A C45U stands 0.03; under U20C G21U U28A G33C U38C, 0.02. Under U20C G27A U34G stands 0.07; under U20C G36C C37U, 0.01. For the variant G21C U32C G40U C42A G44A, the self-cleavage came out at 0.15. Under U20G G21U G29A G44U stands 0.06; under U20C A24G G27U, 0.61; under U20G A41G C46U, 0.16.

For G21C C23G U38G, the self-cleavage was 0.01. On to G21A C31U G35C, for which the self-cleavage turned out to be 0.04. Under G21A G22C C45A stands 1.16; under G21C G22U C31G A41G, 0.03. Under U20A G35A A39U G44U stands 0.03. Under U20C C23A U28A C37U stands 0.01; under G21C G40C C42G, 0.05; under G21A U32A G36U, 0.01.

With U20G C31A A41U, the self-cleavage stood at 0.05. As for U20A U34C G40U, the self-cleavage came to 0.02.

G21C A25G C31U C37U A41G: the self-cleavage turned out to be 0.02. Under U20C U28A G30C stands 1.09; under U20G G40U A41C, 0.12.
